Source: PubChem BioAssay (Tox21)
The inconclusive results got no clear call from the source; some entries with a clear call stand among them for comparison. For some of these results: Where the call is inconclusive, the potency comes from a doubtful curve fit. Where a structure was tested more than once in an assay, its records may differ in their call. Active and inactive are the calls of the source. Unless noted, calls come from the whole dose curve; as a rule, active = well fitted curve in the direction sought with a large enough effect in the repeat runs; inconclusive = weak or mixed curves; inactive = no such curve, though single readings can be large; an effect the other way counts as inactive or inconclusive.

What was measured:
[1] = target: Estrogen receptor beta (Homo sapiens) (UniProt Q92731); experiment: qHTS assay to identify small molecule antagonists of the estrogen receptor beta (ER-beta) signaling pathway (AID 1259378; active = well fitted inhibition curve with a large enough effect in the signal ratio in the repeat runs, not every such curve was filed as active; inconclusive = weak or mixed curves, or effect the other way; inactive = no such curve, though single readings can be large or run the other way; the % refers to the signal ratio; note: % is set by controls: 0 for no effect and ±100 for the full control effect); details: ER-beta-UAS-bla HEK293T, beta-lactamase FRET ratio, 16 h; activity, negative = inhibition: at 92.4 µM (top of the series) unless noted
How it was run: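 ER-beta-UAS-bla HEK293T (GripTite) cells in 2% charcoal-stripped FBS medium were preincubated 6 hr at 37C, dosed with compound, then stimulated with 1 nM E2 (final) for 16 hr; beta-lactamase reporter read by B/G FRET fluorescence after 2 hr substrate loading.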

[2] = target: Progesterone receptor (Homo sapiens) (UniProt P06401); experiment: qHTS assay to identify small molecule antagonists of the progesterone receptor (PR) signaling pathway (AID 1346795; active = well fitted inhibition curve with a large enough effect in the signal ratio in the repeat runs, not every such curve was filed as active; inconclusive = weak or mixed curves; the % refers to the signal ratio; note: potency is the fitted concentration of half-maximal effect; for activity change, negative = inhibition: % is set by controls: 0 for no effect and ±100 for the full control effect); details: PR-UAS-bla HEK293T, beta-lactamase FRET ratio, 16 h; activity change, negative = inhibition: at 92.4 µM (top of the series) unless noted
How it was run: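 Inhibition of R5020-induced (1 nM final) beta-lactamase reporter signal in PR-UAS-bla HEK293T cells was scored by FRET fluorescence after overnight (16 hr) compound treatment.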

[3] = qHTS assay to identify small molecule antagonists of the progesterone receptor (PR) signaling pathway - cell viability counter screen (AID 1346798); note: nearly all actives have a fitted effect of over 50% in size; note: potency is the fitted concentration of half-maximal effect
How it was run: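 ATP content as viability readout: CellTiter-Glo luminescence, 30 min room temperature, in PR-UAS-bla HEK293T cells after 16 hr compound/R5020 treatment at 37C and 5% CO2.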

[4] = qHTS assay to identify small molecule agonists of the progesterone receptor (PR) signaling pathway - cell viability counter screen (AID 1346799; calls by dose curve; note: nearly all actives have a fitted effect of over 45% in size; note: potency is the fitted concentration of half-maximal effect; for activity change, negative = cytotoxicity: % is set by controls: 0 for no effect and ±100 for the full control effect)
How it was run: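 Cytotoxicity in PR-bla HEK293T cells: 16 h compound, 37C; CellTiter-Glo added post-FRET read; luminescence after 30 min RT.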

[5] = qHTS assay to identify small molecule antagonists of the TGF-beta/Smad signaling pathway - cell viability counter screen (AID 1346824); note: potency is the fitted concentration of half-maximal effect; nearly all actives have a fitted effect of over 50% in size
How it was run: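 SBE-bla HEK 293T cells were plated overnight at 37 C, then given compounds in DMSO plus TGF-beta1 (added as 0.25 ng/mL solution) for 5 hr. After the bla read, CellTiter-Glo was added to the same wells and luminescence read after 30 min at room temperature.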

[6] = target: Androgen receptor (Homo sapiens) (UniProt P10275); experiment: qHTS assay to identify small molecule agonists of the androgen receptor (AR) signaling pathway in the presence of an antagonist (AID 1259381; calls by dose curve; note: potency is the fitted concentration of half-maximal effect; nearly all actives have a fitted effect of over 15% in size)
How it was run: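 Plated MDA-kb2 cells (3,000/well) were pre-incubated 5hr, given nilutamide (3.0uM final) or buffer, then dosed with compounds in DMSO at 15 concentrations. Luciferase activity was quantified by luminescence after 16hr at 37C.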

[7] = qHTS assay to identify small molecule agonists of the TGF-beta/Smad signaling pathway - cell viability counter screen (AID 1346829); note: potency is the fitted concentration of half-maximal effect; nearly all actives have a fitted effect of over 45% in size
How it was run: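 Tox21 qHTS format: SBE-bla HEK 293T cells treated with DMSO-dissolved compounds for 5 hr; CellTiter-Glo luminescence after 30 min at room temperature.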

[8] = qHTS assay to identify small molecule agonists of the estrogen receptor beta (ER-beta) signaling pathway - cell viability counter screen (AID 1259380); note: nearly all actives have a fitted effect of over 30% in size; note: potency is the fitted concentration of half-maximal effect; for activity change, negative = cytotoxicity: % is set by controls: 0 for no effect and ±100 for the full control effect
How it was run: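 Compounds dissolved in DMSO were pin-transferred onto ER-beta-UAS-bla HEK293T cells that had settled 6 hr, and exposure ran 16 hr at 37C. Following the reporter read, CellTiter-Glo luminescence after 30 min at room temperature indicated cytotoxicity.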

[9] = qHTS assay to identify small molecule antagonists of the estrogen receptor beta (ER-beta) signaling pathway - cell viability counter screen (AID 1259382); note: nearly all actives have a fitted effect of over 55% in size; note: potency is the fitted concentration of half-maximal effect
How it was run: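 CellTiter-Glo ATP luminescence measured after the LiveBLAzer read in the same wells; ER-beta-UAS-bla HEK293T cells, 16 hr compound treatment with 1nM 17-beta-estradiol agonist at 37C, 5% CO2.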

[10] = qHTS assay to identify small molecule agonists of the TGF-beta/Smad signaling pathway (AID 1346859; active = well fitted activation curve with a large enough effect in the signal ratio in the repeat runs, not every such curve was filed as active; inconclusive = weak or mixed curves; the % refers to the signal ratio; note: potency is the fitted concentration of half-maximal effect); details: SBE-bla HEK293T, TGF-beta/Smad beta-lactamase reporter, 5 h; activation: at 76.8 µM (top of the series)
How it was run: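 Stable Smad binding element-beta-lactamase HEK 293T cells; 5 hr compound exposure at 37 C under 5% CO2; 2 hr room-temperature substrate step; fluorescence excited at 405 nm, collected at 460 nm and 530 nm.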

[11] = qHTS assay to identify small molecule agonists of the androgen receptor (AR) signaling pathway in the presence of an antagonist - cell viability counter screen (AID 1259379); note: nearly all actives have a fitted effect of over 25% in size; note: potency is the fitted concentration of half-maximal effect
How it was run: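 Each compound was tested at 15 concentrations on MDA-kb2 cells in the presence of 3.0uM nilutamide. Viability was measured by CellTiter-Fluor fluorescence after a 16 hr incubation at 37C in a CO2-free atmosphere.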

[12] = target: Estrogen receptor (Homo sapiens) (UniProt P03372); experiment: qHTS assay to identify small molecule agonists of the estrogen receptor alpha (ER-alpha) signaling pathway in the presence of an antagonist (AID 1259383; calls by dose curve; note: nearly all actives have a fitted effect of over 15% in size; note: potency is the fitted concentration of half-maximal effect)
How it was run: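 Luminescent ERE-luciferase reporter, VM7Luc4E2 cells (endogenous ER-alpha); 10.0nM ICI-182,780 final; 15-point compound titration; 22hr at 37C; ONE-Glo, 30min RT.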

[13] = target: Thyrotropin receptor (Homo sapiens) (UniProt P16473); experiment: qHTS assay to identify small molecule antagonists of the thyroid stimulating hormone receptor (TSHR) signaling pathway (AID 1259385; calls by dose curve; note: nearly all actives have a fitted effect of over 20% in size; note: potency is the fitted concentration of half-maximal effect); details: TSHR-HEK293 cAMP HTRF, TSH-stimulated antagonist mode; activity change, negative = inhibition: at 92.4 µM (top of the series) unless noted
How it was run: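 TSHR-HEK293 cells were plated and held 18 h at 37C/5% CO2, then given compound plus Ro20-1724 and stimulated with TSH at 1.5 ng/mL final. After 30 min at room temperature, cAMP was detected with cAMP-d2/anti-cAMP-cryptate (1 h) by fluorescence.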

[14] = qHTS assay to identify small molecule agonists of the estrogen receptor alpha (ER-alpha) signaling pathway in the presence of an antagonist - cell viability counter screen (AID 1259386);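 note: cells exposed to compounds for 22 h at 37 °C before the viability read; % is set by controls: 0 for no effect and ±100 for the full control effect; nearly all actives have a fitted effect of over 30% in size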
How it was run: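 Using estrogen-depleted VM7Luc4E2 cells, the 15-concentration compound series was applied together with 10.0nM ICI-182,780 and incubated 22hr at 37C/5% CO2. Cell viability was then scored by CellTiter-Fluor.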
Tags give direction and shape of the fitted curve or compound fluorescence and quenching.

Sequence of UniProt P06401 (P06401 whole entry, looked up): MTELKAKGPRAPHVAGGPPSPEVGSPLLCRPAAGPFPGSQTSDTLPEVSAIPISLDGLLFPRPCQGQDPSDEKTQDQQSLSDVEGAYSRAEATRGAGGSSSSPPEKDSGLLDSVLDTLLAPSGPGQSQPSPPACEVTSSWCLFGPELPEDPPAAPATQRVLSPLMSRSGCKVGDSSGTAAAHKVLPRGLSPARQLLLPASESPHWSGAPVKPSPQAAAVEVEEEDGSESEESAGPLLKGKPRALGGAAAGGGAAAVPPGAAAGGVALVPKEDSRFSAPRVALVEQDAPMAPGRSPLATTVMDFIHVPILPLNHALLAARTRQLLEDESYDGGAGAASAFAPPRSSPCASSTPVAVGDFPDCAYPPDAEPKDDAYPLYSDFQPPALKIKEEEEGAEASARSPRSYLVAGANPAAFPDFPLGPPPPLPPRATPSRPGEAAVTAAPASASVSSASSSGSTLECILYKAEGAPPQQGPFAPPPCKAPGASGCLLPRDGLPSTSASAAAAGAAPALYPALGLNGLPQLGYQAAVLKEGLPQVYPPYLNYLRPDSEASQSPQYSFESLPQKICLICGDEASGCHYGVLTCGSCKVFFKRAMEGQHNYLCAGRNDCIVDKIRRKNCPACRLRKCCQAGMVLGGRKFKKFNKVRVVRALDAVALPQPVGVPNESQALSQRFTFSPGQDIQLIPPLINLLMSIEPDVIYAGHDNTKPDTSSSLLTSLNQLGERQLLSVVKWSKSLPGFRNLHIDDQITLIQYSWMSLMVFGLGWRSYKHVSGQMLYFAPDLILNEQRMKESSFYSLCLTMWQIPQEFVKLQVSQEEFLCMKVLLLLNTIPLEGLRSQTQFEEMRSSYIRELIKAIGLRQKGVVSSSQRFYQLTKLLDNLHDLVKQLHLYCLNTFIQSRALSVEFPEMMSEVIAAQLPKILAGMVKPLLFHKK
Sequence of UniProt P03372 (P03372 whole entry, looked up): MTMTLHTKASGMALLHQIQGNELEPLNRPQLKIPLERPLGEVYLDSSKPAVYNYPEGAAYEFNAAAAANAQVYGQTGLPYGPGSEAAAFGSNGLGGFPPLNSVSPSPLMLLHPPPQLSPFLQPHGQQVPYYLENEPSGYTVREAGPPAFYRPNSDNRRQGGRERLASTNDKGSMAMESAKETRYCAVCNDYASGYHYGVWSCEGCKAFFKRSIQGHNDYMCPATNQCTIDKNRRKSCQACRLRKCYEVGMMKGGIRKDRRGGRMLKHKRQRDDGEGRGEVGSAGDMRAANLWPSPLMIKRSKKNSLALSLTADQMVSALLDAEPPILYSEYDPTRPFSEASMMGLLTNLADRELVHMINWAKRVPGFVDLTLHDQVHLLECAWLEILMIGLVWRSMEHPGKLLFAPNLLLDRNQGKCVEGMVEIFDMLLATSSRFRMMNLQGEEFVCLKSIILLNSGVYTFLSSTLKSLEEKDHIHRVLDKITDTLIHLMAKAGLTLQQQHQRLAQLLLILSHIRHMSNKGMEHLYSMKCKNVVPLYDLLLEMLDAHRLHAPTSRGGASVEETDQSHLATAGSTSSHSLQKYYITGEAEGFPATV
Sequence of UniProt Q92731 (Q92731 whole entry, looked up): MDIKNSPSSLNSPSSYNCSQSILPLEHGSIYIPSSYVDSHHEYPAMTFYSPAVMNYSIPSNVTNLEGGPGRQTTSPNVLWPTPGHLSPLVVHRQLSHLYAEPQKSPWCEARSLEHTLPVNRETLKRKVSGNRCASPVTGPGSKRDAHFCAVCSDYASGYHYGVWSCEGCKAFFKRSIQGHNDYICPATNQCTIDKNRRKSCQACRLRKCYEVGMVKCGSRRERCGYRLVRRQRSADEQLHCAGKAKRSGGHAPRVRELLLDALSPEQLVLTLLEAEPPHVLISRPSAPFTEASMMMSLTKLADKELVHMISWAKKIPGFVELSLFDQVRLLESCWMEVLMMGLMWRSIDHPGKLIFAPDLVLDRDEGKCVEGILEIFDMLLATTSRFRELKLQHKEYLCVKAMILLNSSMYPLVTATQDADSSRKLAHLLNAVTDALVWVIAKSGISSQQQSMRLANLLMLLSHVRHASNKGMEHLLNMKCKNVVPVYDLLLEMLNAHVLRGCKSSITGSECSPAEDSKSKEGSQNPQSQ
Sequence of UniProt P10275 (P10275 whole entry, looked up): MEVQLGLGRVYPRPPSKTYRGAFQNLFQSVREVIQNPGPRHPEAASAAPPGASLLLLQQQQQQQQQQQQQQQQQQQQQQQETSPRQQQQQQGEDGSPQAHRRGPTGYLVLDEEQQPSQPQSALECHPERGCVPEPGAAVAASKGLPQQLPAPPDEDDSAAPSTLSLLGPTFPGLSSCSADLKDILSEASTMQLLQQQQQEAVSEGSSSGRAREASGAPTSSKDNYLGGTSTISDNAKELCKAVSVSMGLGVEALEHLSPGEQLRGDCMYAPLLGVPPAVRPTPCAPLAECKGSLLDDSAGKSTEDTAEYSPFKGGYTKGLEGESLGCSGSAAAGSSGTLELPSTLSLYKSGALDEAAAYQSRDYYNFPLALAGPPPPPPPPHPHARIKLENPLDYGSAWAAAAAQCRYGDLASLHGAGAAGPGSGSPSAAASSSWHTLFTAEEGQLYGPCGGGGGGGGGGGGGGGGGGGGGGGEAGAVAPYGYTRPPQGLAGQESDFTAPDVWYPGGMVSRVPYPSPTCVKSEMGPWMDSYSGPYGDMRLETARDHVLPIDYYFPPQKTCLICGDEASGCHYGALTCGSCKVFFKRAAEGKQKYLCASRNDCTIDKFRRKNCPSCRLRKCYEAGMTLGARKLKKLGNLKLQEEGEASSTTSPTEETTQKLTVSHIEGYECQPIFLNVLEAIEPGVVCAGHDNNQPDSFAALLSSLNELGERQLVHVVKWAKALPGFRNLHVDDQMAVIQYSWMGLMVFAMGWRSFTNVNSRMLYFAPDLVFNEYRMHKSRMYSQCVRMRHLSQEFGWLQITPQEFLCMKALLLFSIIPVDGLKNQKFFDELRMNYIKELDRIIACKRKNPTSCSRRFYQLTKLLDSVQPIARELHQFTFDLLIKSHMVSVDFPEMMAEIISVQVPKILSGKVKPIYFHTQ
Sequence of UniProt P16473 (P16473 whole entry, looked up): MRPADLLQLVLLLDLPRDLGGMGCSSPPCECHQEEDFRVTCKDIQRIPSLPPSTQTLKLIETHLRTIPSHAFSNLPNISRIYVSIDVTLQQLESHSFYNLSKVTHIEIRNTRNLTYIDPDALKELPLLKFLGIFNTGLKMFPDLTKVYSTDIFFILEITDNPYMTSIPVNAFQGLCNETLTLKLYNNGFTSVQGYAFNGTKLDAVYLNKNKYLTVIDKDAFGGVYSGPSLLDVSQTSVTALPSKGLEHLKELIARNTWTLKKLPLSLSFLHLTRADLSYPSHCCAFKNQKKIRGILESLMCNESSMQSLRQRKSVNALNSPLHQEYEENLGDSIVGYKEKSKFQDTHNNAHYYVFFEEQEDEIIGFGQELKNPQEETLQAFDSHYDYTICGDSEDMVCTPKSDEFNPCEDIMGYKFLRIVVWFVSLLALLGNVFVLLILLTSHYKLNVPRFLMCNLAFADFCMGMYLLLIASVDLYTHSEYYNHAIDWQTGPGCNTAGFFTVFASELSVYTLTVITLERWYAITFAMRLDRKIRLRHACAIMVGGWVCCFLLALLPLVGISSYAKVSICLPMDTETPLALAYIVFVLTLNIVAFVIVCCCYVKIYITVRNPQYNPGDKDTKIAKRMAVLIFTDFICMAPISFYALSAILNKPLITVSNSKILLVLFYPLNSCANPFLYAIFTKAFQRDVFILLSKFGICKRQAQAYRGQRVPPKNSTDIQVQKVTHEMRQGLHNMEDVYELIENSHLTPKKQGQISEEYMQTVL

For `O=C(c1ccccc1)C(O)c1ccccc1` (configuration not stated), the Potency [1] was “inactive” and the Potency [2] was “inactive”.
For `CCOCCOCC`, the Potency [1] was “inactive” and the Potency [2] was “inactive”.
With `C=CCCC` the Potency [1] was “inactive”, the Potency [3] was inconclusive: 0.124 µM [rising, partial curve, poor fit] and the Potency [4] was “inactive”.
With `CCCCCCCCCCCC(=O)N(C)CC(=O)O` the activity, negative = inhibition [1] was inconclusive: -35.7% and the Potency [3] was inconclusive: 0.938 µM [cytotoxic, single point].
In the case of `O=S(=O)(Oc1ccc(Cl)cc1)c1ccccc1`, the Potency [1] is reported as “inactive”, the Potency [2] is reported as active: 24.3 µM and the Potency [5] is reported as inconclusive: 0.49 µM [cytotoxic, single point].
With `CCCCCCOCCO` the activity, negative = inhibition [1] was inconclusive: 5.64%, the activity change, negative = inhibition [2] was inconclusive: 18.3% and the Potency [4] was “inactive”.
In the case of `COc1cc(N)ccc1C`, the activity, negative = inhibition [1] is reported as inconclusive: -22.1%, the activity change, negative = inhibition [2] is reported as inconclusive: -25.4% and the Potency [4] is reported as inconclusive: 27 µM [cytotoxic, single point].
In the case of `F[Si-2](F)(F)(F)(F)F`, the Potency [1] is reported as “inactive” and the Potency [4] is reported as “inactive”.
With `CCCCOc1cc(C(=O)OCCN(CC)CC)ccc1N` the Potency [1] was “inactive” and the Potency [4] was “inactive”.
In the case of `O=S(=O)(O)CCN1CCN(CCO)CC1`, the Potency [1] is reported as “inactive”, the Potency [3] is reported as inconclusive: 23.9 µM [cytotoxic, single point] and the Potency [4] is reported as inconclusive: 2.68 µM [cytotoxic, single point].
For `O=C(c1ccco1)N1CCNCC1`, the Potency [1] was “inactive” and the Potency [4] was “inactive”.
With `OCc1ccccn1` the activity, negative = inhibition [1] was inconclusive: 0.23% [at 42.5 µM] and the Potency [4] was “inactive”.
In the case of `Cc1ccnc2ccccc12`, the Potency [1] is reported as “inactive” and the Potency [3] is reported as inconclusive: 1.36 µM [cytotoxic, single point].
For `Cc1ccc(N=Nc2c(O)ccc3ccccc23)c(C)c1`, the Potency [6] was active: 0.335 µM.
In the case of `CC(C)=CC(=O)O`, the Potency [7] is reported as inconclusive: 2.19 µM [cytotoxic, single point].
With `CCOC(=O)COc1ccc2c(c1)CC(NCC(O)c1cccc(Cl)c1)CC2` (configuration not stated) the Potency [7] was inconclusive: 2.48 µM [rising, partial curve].
In the case of `CCCc1cc(=O)[nH]c(=S)[nH]1`, the Potency [8] is reported as “inactive”.
For `CC(C)c1ccc2oc3nc(N)c(C(=O)O)cc3c(=O)c2c1`, the Potency [8] was active: 23.7 µM, the Potency [6] was inconclusive: 5.96 µM [rising, partial curve] and the Potency [9] was inconclusive: 33.5 µM [cytotoxic, partial curve, poor fit]. For the same compound, the Potency [3] was “inactive” and the Potency [10] was inconclusive: 16.9 µM [rising, partial curve].
With `CC(C)C[C@H]1C(=O)N2CCC[C@H]2[C@]2(O)O[C@](NC(=O)[C@@H]3C=C4c5cccc6[nH]c(Br)c(c56)C[C@H]4N(C)C3)(C(C)C)C(=O)N12` the Potency [11] was inconclusive: 23.2 µM [cytotoxic, partial curve, poor fit], the Potency [3] was inconclusive: 18.4 µM [rising, partial curve] and the Potency [4] was inconclusive: 11.6 µM [rising, partial curve].
For `O=C(OCCOCCOCCOC(=O)c1ccccc1)c1ccccc1`, the Potency [8] was “inactive”.
With `CCCOCC(C)O` (configuration not stated) the Potency [8] was “inactive”.
With `COc1ccccc1N1CCN(CCCNc2cc(=O)n(C)c(=O)n2C)CC1` the Potency [11] was “inactive” and the Potency [4] was “inactive”.
In the case of `C=CCSSCCC`, the Potency [11] is reported as “inactive” and the Potency [4] is reported as inconclusive: 27.2 µM [rising, single point].
With `C[C@@H](N)C(=O)O` the Potency [11] was “inactive” and the Potency [2] was “inactive”.
For `Fc1ccc(Br)cc1`, the Potency [8] was inconclusive: 77.7 µM [cytotoxic, single point] and inactive and the Potency [12] was active: 61.8 µM.
For `C=CCc1ccc(O)c(OC)c1`, the Potency [8] was inconclusive: 0.0611 µM [rising, full curve, poor fit].
In the case of `OC[C@H]1O[C@@](CO)(O[C@H]2O[C@H](CO)[C@@H](O)[C@H](O)[C@H]2O)[C@@H](O)[C@@H]1O`, the Potency [8] is reported as inconclusive: 24.3 µM [rising, single point], the Potency [9] is reported as “inactive” and the Potency [3] is reported as “inactive”.
In the case of `O=C(O)Cc1c[nH]c2ccccc12`, the Potency [11] is reported as “inactive” and the Potency [3] is reported as “inactive”.
For `c1ccc2c(c1)ccc1ccccc12`, the Potency [8] was inconclusive: 37.5 µM [cytotoxic, partial curve] and the Potency [12] was “inactive”.
In the case of `C=CC(=O)OCCOC1C2CCC1C1CC=CC12` (configuration not stated), the activity change, negative = cytotoxicity [8] is reported as inactive: -0.168% [at 19 µM].
With `CCCCCCCN` the Potency [8] was “inactive”.
With `CCC(C)(C)C` the Potency [11] was inconclusive: 16.3 µM [cytotoxic, single point], the Potency [2] was “inactive” and the Potency [4] was “inactive”.
For `CC(=O)c1ccccc1O`, the Potency [8] was inconclusive: 15.4 µM [cytotoxic, single point].
With `c1cnc2cc3c(cc2n1)C1CNCC3C1` the Potency [8] was “inactive”.
With `C=Cc1ccc(C)cc1` the Potency [8] was inconclusive: 70.6 µM [rising, partial curve, poor fit].
For `C=CC(=O)OCCOc1ccccc1`, the Potency [8] was inconclusive: 48.5 µM [cytotoxic, partial curve].
With `CC(C)(C)c1ccc(OC(=O)c2ccccc2O)cc1` the Potency [8] was inconclusive: 61.1 µM [cytotoxic, single point], the Potency [12] was inconclusive: 30.6 µM [activator, partial curve] and the Potency [13] was inconclusive: 68.6 µM [falling, single point].
With `CCNC(=O)NCCCOc1cccc(CN2CCCCC2)c1` the Potency [8] was “inactive”, the Potency [9] was “inactive” and the Potency [14] was “inactive”.
With `NC(N)=NC(=O)Cc1c(Cl)cccc1Cl` the Potency [8] was “inactive”.
In the case of `CCCCCCCCCCCCCCCCOS(=O)(=O)O`, the Potency [8] is reported as active: 33.5 µM, the Potency [9] is reported as inconclusive: 33.5 µM [cytotoxic, single point] and the activity change, negative = inhibition [13] is reported as inconclusive: -11.2% [at 42.5 µM]. For the same compound, the Potency [3] was inconclusive: 23.7 µM [cytotoxic] and the Potency [4] was active: 18.8 µM.
